Out of some 150,000 compounds screened, about 540 (0.36%) showed an effect of 50% or more. This is one part of the list.

The subject of the experiment is Plasmodium falciparum. The experiment in a line: Primary screen in NF54 nanoGlo assay, in single point, at 2uM, 72h; a lower Z score goes with more inhibition. Type of experiment: functional, Erythrocyte. To be noted: timepoint 72 hour.
The term % Inhibition denotes the relative decrease from the control value, in per cent. On to `CCOCCC(=O)Nc1nnc(C(CC)CC)s1`, for which the “% Inhibition” value was -8% and the Z score amounted to 1.22.
In the same order, the values of `CC(C)c1ccc(CCCNc2cncc(C(=O)N(C)C)n2)cc1` are -10% and 2.03.
In the same order, the values of `O=C(O)C[C@H](NC(=O)C1CCCCCC1)C1CC1` are -10% and 1.63.
The like results for `CO[C@H]1COC[C@H]1NC(=O)NCc1nc(C(C)(C)C)co1` were, in that order, -3% and 0.6.
In the case of `Cc1ccc(N2CCCN(Cc3ccc(C(F)(F)F)cc3)C2=O)c(NC(=O)C2CCC2)c1`, the “% Inhibition” value was -1% and the Z score amounted to 0.17.
The like results for `Cc1ccnc(NS(=O)(=O)N2CCCCC2)c1` were, in that order, -43% and 5.04.
The like results for `Cc1noc(C)c1CC(=O)N(c1ccccc1)[C@H]1CCOC1` were, in that order, -2% and 0.27.
With `COc1ccc(Cl)cc1C(=O)NC1CC2C(=O)Nc3ccccc3N2C1` (stereo not given), the “% Inhibition” value was -13% and the Z score was found to be 2.45.
Turning to `Cc1ccc(CCC(=O)N2CC[C@H]3[C@H](CCC(=O)N3Cc3cccc(F)c3)C2)cc1`, the “% Inhibition” value was 14% and the Z score is listed as -1.91.
In the same order, the values of `CCC(c1ccncc1)N(CC)C(=O)C1CCN(C)C(=O)C1` (stereo not given) are -6% and 0.55.
In the same order, the values of `CCC1CN(C(=O)Nc2ccn(C)n2)C(CC)CN1CC(C)(C)O` (stereo not given) are 3% and -0.43.
In the same order, the values of `CCC/C=C/c1ccc(Cn2ccnc2)cn1` are -9% and 1.46.
As to `CCOC(=O)[C@H]1CCCN(C(=O)CCc2nc3ccccc3s2)C1`, the “% Inhibition” value is given as -21% and the Z score stood at 2.98.
In the same order, the values of `C[C@@H](c1nc2ccccc2c(=O)[nH]1)N1CCCN(c2nc3ccccc3[nH]2)CC1` are -6% and 0.72.
In the same order, the values of `CC(C)n1nccc1NC(=O)CN1CCC[C@H]1c1nc(-c2ccccc2C(F)(F)F)c[nH]1` are -6% and 0.97.
In the same order, the values of `CC(C)(C)C(=O)NCc1cccc(OCC(F)F)c1` are 6% and -0.91.
With `Cc1cc(C(=O)N(CC(=O)N2CCOCC2)Cc2ccccc2)no1`, the “% Inhibition” value was found to be 15% and the Z score is on record as -2.29.
In the same order, the values of `COCc1nc(C)cc(N2CC(C)(O)C2)n1` are 0% and 0.08.
The like results for `O=C(C1CCCC1)N1C[C@@H]2[C@@](C(F)(F)F)(CCCS2(=O)=O)C1` were, in that order, -8% and 1.52.
The like results for `O=S1(=O)CCCC(NC(c2ccccc2)C2CCCc3ccccc32)C1` (stereo not given) were, in that order, 3% and -0.26.
In the case of `COc1cc(CNS(=O)(=O)c2ccc3c(c2)C(C)(C)CN3C(=O)C(C)C)cc(OC)c1OC`, the “% Inhibition” value is on record as 8% and the Z score is recorded as -1.55.
The like results for `O=C(O)c1ccc(CNC2CCCCCCC2)cc1` were, in that order, -14% and 1.67.
With `O=C(c1cnn2cccnc12)N1CCC[C@@]2(C1)OCc1ccccc12`, the “% Inhibition” value is -6% and the Z score is reported as 0.96.
For the compound `O=C1N[C@H](c2ccc(O)cc2)C(=O)N[C@H]1c1ccccc1`, the “% Inhibition” value is -2% and the Z score was 0.26.
The like results for `CN(C)c1nc2ncn3c(=O)n(CC(=O)Nc4ccc5c(c4)OCCO5)nc3c2s1` were, in that order, -21% and 2.03.
The like results for `Cc1nc(N2CCCCC2)nc2c1CCC2` were, in that order, -8% and 0.91.
In the same order, the values of `O=C1CN(S(=O)(=O)c2cccc3nsnc23)CCN1c1ncc(F)cn1` are 17% and -2.13.
As for `Cn1c2cn(-c3ccc(O)cc3)c(-c3ccc(Cl)cc3)c2c(=O)n1-c1ccccc1`, the “% Inhibition” value was found to be 1% and the Z score is recorded as -0.12.
As to `Clc1ccc2c(c1)CC[C@@H]2NCc1cccnc1N1CCOCC1`, the “% Inhibition” value was -18% and the Z score is 1.63.
In the same order, the values of `OC1CC(C2CCCCC2)N(c2ncnc3nc[nH]c23)C1` (stereo not given) are 3% and -0.42.
The like results for `O=C(NCc1ccccn1)c1nc(-c2cnccn2)no1` were, in that order, -1% and 0.13.
In the same order, the values of `COc1ccccc1-c1ncc(CN(C)CCC2(O)CCCC2)cn1` are -2% and 0.27.
Turning to `O=C(NCc1ccncc1)[C@]1(F)CCCN(Cc2ccc3c(c2)CCO3)C1`, the “% Inhibition” value is recorded as -26% and the Z score is on record as 2.31.
`CC(C)c1cc(C(=O)N2CCC3(CC2)Cc2cn(nn2)CCCOc2ccc(cc2)CCNC3=O)no1`: the “% Inhibition” value was -8% and the Z score was 1.01.
In the same order, the values of `O=C(c1cc(COc2ccc3ncccc3c2)on1)N1C[C@H]2CCC[C@@H]1C2` are -6% and 1.1.
The like results for `O=C(N[C@@H]1C[C@H]1c1cccc(Cl)c1)C1CCCO1` (stereo not given in full) were, in that order, -13% and 1.27.
In the same order, the values of `Cc1cc(NC(=O)N2CCC[C@H]2c2ccc3c(c2)OCCO3)no1` are 14% and -1.75.
On to `O=C(C[C@@H]1NC(=O)N(Cc2ccccc2Cl)C1=O)N1CCOC(c2ccccc2)C1` (stereo not given in full), for which the “% Inhibition” value came to 5% and the Z score is -0.85.
The like results for `Cc1cc2n(n1)CCCN2CC(=O)N1CCN(c2cccc(Cl)c2)CC1` were, in that order, -9% and 1.46.
The like results for `CN1CC[C@H]2CC(=O)N(CC3CCC(F)(F)CC3)C[C@H](O)C(C)(C)COCCC[C@H]2C1` were, in that order, 3% and -0.44.
For the compound `CC(C)c1nc2c(c(OC3CCN(C(=O)NCc4cccc(F)c4)CC3)n1)CCOCC2`, the “% Inhibition” value was determined as 4% and the Z score was -0.57.
In the same order, the values of `CCC(=O)N1CCN(Cc2ccc(-c3cccc(F)c3)s2)CC1` are 0% and 0.05.
In the same order, the values of `Cc1ccc(Cl)cc1N1CCN(c2c(C(=O)N3CCCCC3)cnc3ccc(F)cc23)CC1` are -8% and 1.01.
The like results for `CCc1nc2cc(NC(C)=O)cc(C(=O)N[C@H]3CCOC3)c2n1Cc1cccnc1` were, in that order, -8% and 1.19.
With `CNC(=O)Cc1nc(-c2cccc(Cl)c2)cc(-c2c(C)noc2C)n1`, the “% Inhibition” value was -11% and the Z score is given as 1.57.
In the same order, the values of `C[C@H]1CCCCN1CC(=O)NCCCc1ccccc1` are -4% and 0.7.
In the same order, the values of `C#CCCC1(CCC(=O)N2CC3(CCC3)c3c(F)cccc32)N=N1` are -14% and 1.72.
The like results for `COCCc1ccc(Oc2ncnc3c2CCCC3)cc1` were, in that order, -21% and 2.5.
In the case of `O=C(NCc1ccccc1)[C@@H]1COC2(CCN(C(=O)c3ccco3)CC2)N1C(=O)c1ccc(F)cc1`, the “% Inhibition” value is -6% and the Z score is reported as 0.81.
On to `O=C(NCCN1CCOCC1)c1nc(CCS(=O)(=O)c2ccc(Cl)cc2)no1`, for which the “% Inhibition” value stood at 0% and the Z score was found to be 0.06.
In the same order, the values of `COc1cc(F)ccc1CN1CCC2(CCC(=O)N2)CC1` are -4% and 0.7.
The like results for `Cc1nc(N)sc1CC(=O)NCCn1ccnc1C` were, in that order, -4% and 0.78.
For the compound `COCc1cc(C(=O)N2CCCC3(CCCCCC3)C2)no1`, the “% Inhibition” value was -13% and the Z score was 2.07.
With `CCC#CCN1CCC(CNC(=O)[C@@H]2CCCO2)CC1`, the “% Inhibition” value is -6% and the Z score was 1.24.
In the same order, the values of `CC1CN(C(=O)C(C)(C)C)CC(C)N1C(=O)c1ccc(C(N)=O)[nH]1` (stereo not given) are -11% and 1.36.
In the same order, the values of `N#Cc1c(NC(=O)CN(CCN2CCOCC2)CC(=O)Nc2sc3c(c2C#N)CCC3)sc2c1CCC2` are -12% and 1.87.
The like results for `COc1ccc(N2CCN(C(=O)CN3C(=O)C(C)(C)c4cc(C)ccc43)CC2)cc1` were, in that order, -3% and 0.45.
For `C[C@@H](c1ccc(F)cc1F)N1CCC(c2nnc3n2CCC3)CC1`, the “% Inhibition” value is -7% and the Z score amounted to 0.84.
The like results for `Cc1cc(CC(=O)NC[C@H]2COC3(CCC(C)CC3)O2)n[nH]1` (stereo not given in full) were, in that order, -4% and 0.6.
For the compound `CCN1CCC2CCC(C1)N2CC(=O)Nc1ccc2c(c1)CCC2` (stereo not given), the “% Inhibition” value worked out at 19% and the Z score is given as -2.53.
In the same order, the values of `Cc1ccc(S(=O)(=O)Nc2cccc(-c3ccc(N4CCCCC4)nn3)c2)cc1` are -18% and 2.4.
The like results for `Cc1ccc([C@@H]2c3cccn3CCCN2Cc2cccs2)cc1C` were, in that order, 37% and -1.82.
In the same order, the values of `O=C(C1CCCC1)N1CCCC2CCCC21` (stereo not given) are 8% and -1.19.
Turning to `COc1ccc(CNCC(=O)Nc2ccc3c(c2)OCO3)cc1`, the “% Inhibition” value is given as 9% and the Z score is on record as -1.71.
In the same order, the values of `O=C(O)[C@@H]1Cc2ccccc2N1S(=O)(=O)c1ccc2ccccc2c1` are -6% and 1.17.
In the same order, the values of `CN(Cc1ncc[nH]1)C(=O)C(F)(F)C(=O)N1CCOCC1` are -7% and 0.67.
In the case of `COc1cccc([C@H]2CC(=O)Nc3c2cnn3C)c1`, the “% Inhibition” value is 40% and the Z score is given as -4.5.
In the same order, the values of `Nc1nc(N2CCC[C@H]2c2ccccc2)nc(C(F)(F)F)n1` are -8% and 0.86.
The like results for `Cc1noc(C)c1S(=O)(=O)N(C)Cc1ccccn1` were, in that order, -6% and 0.82.
`Cn1cccc1[C@@H](O)CCNS(=O)(=O)c1ccccc1`: the “% Inhibition” value is given as -17% and the Z score is 2.61.
As for `Cc1ccc(CN(C)C(=O)NC[C@H]2CC[C@@H](CO)O2)o1`, the “% Inhibition” value is -7% and the Z score amounted to 1.29.
The like results for `O=C(Nc1cccc(Br)c1)N1Cc2cccn2-c2ccccc21` were, in that order, -2% and 0.3.
Regarding `O=C1CC(C(=O)N2CCCCCC2c2ccncc2)CN1CC1CC1` (stereo not given), the “% Inhibition” value is -5% and the Z score amounted to 0.95.
The like results for `C[C@H](Nc1cccc(-c2ncn(C)n2)c1)C1CCC1` were, in that order, 1% and -0.07.
The like results for `CC(C)CC1(NC(=O)N[C@@H](C)[C@H](O)c2ccc(O)cc2)CC1` were, in that order, 1% and -0.07.
The like results for `C=CCOC1CCN(C(=O)CCc2cnn(C)c2)CC1` were, in that order, -18% and 3.54.
Turning to `Cc1nc(-c2nnn(-c3cccc(Cl)c3)c2C)sc1C(=O)NC1CCCC1`, the “% Inhibition” value is reported as -3% and the Z score amounted to 0.26.
The like results for `Cc1nn(CC(=O)C(C)(C)C)c(C)c1Br` were, in that order, -13% and 2.11.
As to `Cc1cc(O)n2nc(CC(=O)NCCCn3ccnc3C(C)C)nc2n1`, the “% Inhibition” value is on record as -14% and the Z score came out at 2.16.
On to `O=S(=O)(Nc1nc2ncccn2n1)c1cccs1`, for which the “% Inhibition” value is 3% and the Z score is -0.41.
The like results for `O=C(CN1C(=O)CNC1=O)N1CCc2[nH]c3c(Cl)cccc3c2C1` were, in that order, 0% and 0.07.
In the same order, the values of `COC(=O)c1cc(-c2ccncc2)n(C)n1` are 2% and -0.45.
The like results for `CC(=O)Nc1ccc(C(=O)N2CCC[C@H](Oc3ccncn3)C2)cc1` were, in that order, 5% and -0.73.
Turning to `C[C@@H](C(=O)N(C)Cc1ccc2c(c1)OCO2)n1cncn1`, the “% Inhibition” value came out at 4% and the Z score is -0.83.
The like results for `O=C(C1CCCC1)N1C[C@@H]2CN(Cc3ccsc3)C[C@]2(C(=O)O)C1` were, in that order, 2% and -0.42.
